# Laboratory results: the supplement of paper PMC11417369
# ± gives the standard deviation of the averaged measurements. Some of the results follow.
# System: PfAP2-G AP2 domain (GST-tagged)
# Assay: gcPBM binding intensity (ln(normalized median fluorescence intensity)); higher = stronger DNA binding
# Summary of the method: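 DNA-binding domains from P. falciparum, fused to GST and produced in E. coli, were put on an Agilent 4 × 180k double-stranded probe array for 1 h in 1× PBS holding 1% milk, 0.2 mg/ml BSA, 0.5% salmon testes DNA and 0.03% Triton X-100. Probes were primer-extended, 36 bp long and drawn from intergenic genomic regions, with negative controls included. After Alexa488 anti-GST antibody detection and a 488 nm scan, binding intensity was set as the highest Masliner-normalised natural-log median intensity across replicate spots of either probe orientation.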
row,Sequence,gcPBM binding intensity (ln)
1,TTTTTCTATTCCATTCAACACACAAAAATGTATGCT [CACACA_site8268],9.995 ± 0.078
2,AAAGTTTTAAGAAAATGTACATAAGTATACATATAT [XGTACX_site1293],11 ± 0.51
3,ATTCTTGTTATATAAGGTACAGAACAAAATATAAAA [XGTACX_site5510],11 ± 0.71
4,TTTGGGATAAAACAAAGTACTAACAAAATATATAAT [XGTACX_site8240],11 ± 0.49
5,TGCATTTTACTTGTTACACACATATAAAATTAACCA [CACACA_site7387],10.05 ± 0.085
6,AAATGGAGTTAATATTGTACATATATATATATATAT [XGTACX_site5452],11 ± 0.68
7,ATTTATAAATCAAAGTGTACATATGTTTTATTTTTT [XGTACX_site804],11.4 ± 0.6
8,AGAGAGAACGGTATAACATGCAATAAATTTCAGAAG [TGCATGCA_site423],9.62 ± 0.19
9,TTTTTTTAATAAAAGTGTACCAAATTATATACACAT [XGTACX_site6811],11.1 ± 0.64
10,TTTTATAAATATTTTTGTACACATTTAAATATTATT [XGTACX_site4973],11.3 ± 0.59
11,TTTTCATATATTTATTGTACATATTACATATATAAT [XGTACX_site2425],11.1 ± 0.61
12,TTCTTTTTAAATATACTAATTATGTATAAAACAGAA [GTGCAC_negctrl_site131],9.94 ± 0.23
13,ATGTATGTAATAAAAAGTACATATGTTCATAATAAA [XGTACX_site842],11.4 ± 0.57
14,TTTTATTATATGGAGGTGCATATATAATAATATAAT [GTGCAC_site9477],9.9 ± 0.16
15,ATCGGTAATATTAACACACACATTTATTTATATTTA [CACACA_site6638],10.03 ± 0.092
16,TGGAACGTAATAAAATGTACATACGTTTTTCATATG [XGTACX_site6229],11.1 ± 0.63
17,TTTTTTTTTCCTTCTTGTACATATTATATATACATA [XGTACX_site5988],11 ± 0.55
18,TTCACATATATATAACGTACATTATTATTATTCTGA [XGTACX_site6006],11.1 ± 0.71
19,AACACATACATATATGCACACATTTTATTCCATTAT [CACACA_site2834],10.125 ± 0.007

row,Sequence,gcPBM binding intensity (ln)
1,TTTTTTTTTTTTTGTACATGCAAATATTATGAACAC [TGCATGCA_site571],11.1 ± 0.86
2,GACAAATTAATCGATTGTACACAATTTGTTTCGTTG [XGTACX_site35],11.3 ± 0.9
3,TCTTATTTAATTAAACAAAAGAAAAAGAAAGAAAAG [CACACA_negctrl_site1569],10 ± 0.19
4,TACAAGTATAAATAAGCACACATGTGTATATGTACA [CACACA_site7911],10.6 ± 0.23
5,TTAGAAGGGATTAAAGTGCAAAATAGGATTAGAGTA,9.98 ± 0.014
6,GATCTTTTTTTTCTTACTTTACAATTTTTTTTTTAC [XGTACX_negctrl_site101],9.995 ± 0.035
7,TTTTTTTTTTTCATGTGTACATATATTTTCACTTTA [XGTACX_site4475],11.4 ± 0.82
8,AAGAAAAAGAATAGACGGACAACTAATATAAAATAT [XGTACX_site7905],11.2 ± 0.63
9,TTTATTTCTATATTTACATGCAAAGGGTTAGTTATA [TGCATGCA_site983],9.97 ± 0.099
10,TATCATCATGTATGTACACACATACCTATATTATGT [CACACA_site6768],11.3 ± 0.79
11,GTTTTACACAGACATGCATGTGAAAATTTGATGGTA [TGCATGCA_site308],9.92 ± 0.099
12,TGTATAAAACATGGGTGTACTGAACTCAATCATATA [XGTACX_site1215],11.3 ± 0.64
13,GATTTTCTAATTTCTACACACATATAAGAATATTCA [CACACA_site7340],10 ± 0.099
14,TTTTTAATTCAAACAATAATATGTTATATTTCAAAT [TGCATGCA_negctrl_site27],9.715 ± 0.035
15,AAAAGTAACAAAGCTACACACATTTAAATAAACATA [CACACA_site1421],9.945 ± 0.092
16,AAAATAACAAAATAAAGTACTTTTAAAAGATATAAT [XGTACX_site7632],11 ± 0.59
17,AAAATAAAAAAGTGTACACATATTAAAATGTATTTA [CACACA_site4424],11.6 ± 0.88
18,GAAAAGAAAAATAAACGTACATAAATATTAACATTA [XGTACX_site8213],11.4 ± 0.98
19,CAAATAAAAATAAGGAGTACAATTAAAAAAGGAAGG [XGTACX_site4366],11.6 ± 0.91

row,Sequence,gcPBM binding intensity (ln)
1,TATTAGCATGTTATTACACACAATATAAAATATATA [CACACA_site1401],9.76 ± 0.071
2,TAAAATTATATAAAGGAACACACATTTTATTTTATT [CACACA_site8423],9.925 ± 0.007
3,TCATTGTTAAGCTGAAGTACTTATAATTACATCGAG [XGTACX_site6340],11.2 ± 0.76
4,AATATATTTTAATATACACACATATCTGCTCTTTAA [CACACA_site6130],9.765 ± 0.021
5,CATGTATGTACCATGGTGCAACAATATTTTTAACAA [GTGCAC_site9597],11 ± 0.64
6,AATTAAATTACTTATACACACATAAAATGTCTGTAT [CACACA_site997],10.01 ± 0.092
7,AAATTATGAACATATTGTACATATATATATATATAT [XGTACX_site8269],10.8 ± 0.48
8,ATTATATAAATTATATGTACGTATTTTTTTTTTTTT [XGTACX_site1908],11.5 ± 0.83
9,TGTTTTTAAATTTAAATCAAAAAATAAAATAAAATA [GTGCAC_negctrl_site355],9.96 ± 0.22
10,ATAATTATATATATATGTACATATTATATATATATA [XGTACX_site4526],11.2 ± 0.77
11,CATAAATACATACATACACACATATTTATATTTATA [CACACA_site7071],9.95 ± 0.057
12,AAAAGAAAAATGTCATATGATATCATATATTTTATA [GTGCAC_negctrl_site185],9.66 ± 0.028
13,AAAAATATGTGATAATGTACTTTTCATTTTTATTTT [XGTACX_site8544],11 ± 0.6
14,AAGATAACAAGTAATCAATCTAATTATTAATTATAT [CACACA_negctrl_site1713],9.41 ± 0.2
15,ATATATTTAAATAAATGTACAAATCATAAATTCAAG [XGTACX_site1417],10.8 ± 0.56
16,AATATAATATAATGCACACATAAACAAAAAAAAAAT [CACACA_site1304],10.1 ± 0.35
17,TTCATTTGAAAACTGTGTACTTAAAAATATACATAT [XGTACX_site176],11.4 ± 0.91
18,TATATATATTGTGTATGTACATATATATAAATATTG [XGTACX_site433],11.2 ± 0.69
